Targets with the largest changes are over-represented here; the source holds about 21,000 in all.
Compound: CC1Cc2ccccc2N1C(=O)C1CCCN(C1)C(=O)CCl (mixture of isomers) [TRIM25 ligand 11 (diastereomer mixture)]
Test: probe-labelled cysteine peptide fold change vs DMSO (competition) (log2 fold change); higher = less target engagement (more negative = stronger competition)
Settings: THP-1, incubation time: 4 h
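Also: competitive chemoproteomic profiling in live THP-1 cells with an iodoacetamide desthiobiotin (IA-DTB) probe, comparing probe-labelled peptide intensities in compound-treated cells against DMSO-treated controls.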

ALDH1L1_O75891_537_YFAGWCDK (UniProt O75891)
probe-labelled cysteine peptide fold change (10 µM): 0.0811
probe-labelled cysteine peptide fold change (50 µM): 0.214

BCLAF1_Q9NYF8_688_CDSADLRHDIDR (UniProt Q9NYF8)
probe-labelled cysteine peptide fold change (10 µM): -0.909
probe-labelled cysteine peptide fold change (50 µM): -0.508

ARL14EP_Q8N8R7_57_TGMTLSGNNTICFHHVK (UniProt Q8N8R7)
probe-labelled cysteine peptide fold change (10 µM): 0.0953
probe-labelled cysteine peptide fold change (50 µM): 0.00312

B4GAT1_O43505_159_VAMHLVCPSR (UniProt O43505+B4GAT1)
probe-labelled cysteine peptide fold change (10 µM): 0.253
probe-labelled cysteine peptide fold change (50 µM): 0.253

BLVRA_P53004_204_MTVCLETEK (UniProt P53004)
probe-labelled cysteine peptide fold change (10 µM): 0.159
probe-labelled cysteine peptide fold change (50 µM): 0.0873

ANO10_Q9NW15_124_GFDDNNDDFLTMAECQFIIK (UniProt Q9NW15)
probe-labelled cysteine peptide fold change (10 µM): -0.447
probe-labelled cysteine peptide fold change (50 µM): -0.646

ANXA7_P20073_413_TILQCALNRPAFFAER (UniProt P20073)
probe-labelled cysteine peptide fold change (10 µM): 0.0362
probe-labelled cysteine peptide fold change (50 µM): 0.0988

ANKLE1_Q8NAG6_124_DQDGLRPLDLALQQGHLECAR (UniProt Q8NAG6)
probe-labelled cysteine peptide fold change (10 µM): 0.0735
probe-labelled cysteine peptide fold change (50 µM): -0.0476

AMBP_P02760_277_ECLQTCR (UniProt P02760)
UniProt P02760, sequence (P02760 whole entry, looked up): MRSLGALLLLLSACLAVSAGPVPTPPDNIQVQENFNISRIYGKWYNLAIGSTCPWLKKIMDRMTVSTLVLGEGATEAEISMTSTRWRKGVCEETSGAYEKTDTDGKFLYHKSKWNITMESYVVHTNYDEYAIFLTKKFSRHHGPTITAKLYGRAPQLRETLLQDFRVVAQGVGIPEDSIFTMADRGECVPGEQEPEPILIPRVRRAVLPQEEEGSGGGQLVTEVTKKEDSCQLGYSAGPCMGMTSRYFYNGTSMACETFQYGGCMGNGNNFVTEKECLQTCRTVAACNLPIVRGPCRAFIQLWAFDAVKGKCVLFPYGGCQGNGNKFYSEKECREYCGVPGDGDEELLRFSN
probe-labelled cysteine peptide fold change (10 µM): 0.264
probe-labelled cysteine peptide fold change (50 µM): 0.576

AGPS_O00116_58_EALSTNECK (UniProt O00116)
probe-labelled cysteine peptide fold change (10 µM): 0.0265
probe-labelled cysteine peptide fold change (50 µM): -0.111

ATP1A1_P05023_211_IISANGCK (UniProt P05023)
probe-labelled cysteine peptide fold change (10 µM): -0.25
probe-labelled cysteine peptide fold change (50 µM): -0.142

ANXA7_P20073_327_LLVSMCQGNR (UniProt P20073)
probe-labelled cysteine peptide fold change (10 µM): 0.0881
probe-labelled cysteine peptide fold change (50 µM): 0.102

ATR_Q13535_2497_HGENILFDSLTGECVHVDFNCLFNK (UniProt Q13535)
probe-labelled cysteine peptide fold change (10 µM): 0.441
probe-labelled cysteine peptide fold change (50 µM): 0.219

BLVRB_P30043_109_VVACTSAFLLWDPTK (UniProt P30043)
probe-labelled cysteine peptide fold change (10 µM): -0.0186
probe-labelled cysteine peptide fold change (50 µM): 0.0611

ATP6V1H_Q9UI12_47_VNWQSYLQGQMISAEDCEFIQR (UniProt Q9UI12)
probe-labelled cysteine peptide fold change (10 µM): -0.861
probe-labelled cysteine peptide fold change (50 µM): -0.546

ANKLE1_Q8NAG6_517_KQPHQACPK (UniProt Q8NAG6)
probe-labelled cysteine peptide fold change (10 µM): 0.172
probe-labelled cysteine peptide fold change (50 µM): 0.182

BIRC6_Q9NR09_1293_GCDLLQEVSVTIR (UniProt Q9NR09)
UniProt Q9NR09, sequence (Q9NR09 whole entry, looked up): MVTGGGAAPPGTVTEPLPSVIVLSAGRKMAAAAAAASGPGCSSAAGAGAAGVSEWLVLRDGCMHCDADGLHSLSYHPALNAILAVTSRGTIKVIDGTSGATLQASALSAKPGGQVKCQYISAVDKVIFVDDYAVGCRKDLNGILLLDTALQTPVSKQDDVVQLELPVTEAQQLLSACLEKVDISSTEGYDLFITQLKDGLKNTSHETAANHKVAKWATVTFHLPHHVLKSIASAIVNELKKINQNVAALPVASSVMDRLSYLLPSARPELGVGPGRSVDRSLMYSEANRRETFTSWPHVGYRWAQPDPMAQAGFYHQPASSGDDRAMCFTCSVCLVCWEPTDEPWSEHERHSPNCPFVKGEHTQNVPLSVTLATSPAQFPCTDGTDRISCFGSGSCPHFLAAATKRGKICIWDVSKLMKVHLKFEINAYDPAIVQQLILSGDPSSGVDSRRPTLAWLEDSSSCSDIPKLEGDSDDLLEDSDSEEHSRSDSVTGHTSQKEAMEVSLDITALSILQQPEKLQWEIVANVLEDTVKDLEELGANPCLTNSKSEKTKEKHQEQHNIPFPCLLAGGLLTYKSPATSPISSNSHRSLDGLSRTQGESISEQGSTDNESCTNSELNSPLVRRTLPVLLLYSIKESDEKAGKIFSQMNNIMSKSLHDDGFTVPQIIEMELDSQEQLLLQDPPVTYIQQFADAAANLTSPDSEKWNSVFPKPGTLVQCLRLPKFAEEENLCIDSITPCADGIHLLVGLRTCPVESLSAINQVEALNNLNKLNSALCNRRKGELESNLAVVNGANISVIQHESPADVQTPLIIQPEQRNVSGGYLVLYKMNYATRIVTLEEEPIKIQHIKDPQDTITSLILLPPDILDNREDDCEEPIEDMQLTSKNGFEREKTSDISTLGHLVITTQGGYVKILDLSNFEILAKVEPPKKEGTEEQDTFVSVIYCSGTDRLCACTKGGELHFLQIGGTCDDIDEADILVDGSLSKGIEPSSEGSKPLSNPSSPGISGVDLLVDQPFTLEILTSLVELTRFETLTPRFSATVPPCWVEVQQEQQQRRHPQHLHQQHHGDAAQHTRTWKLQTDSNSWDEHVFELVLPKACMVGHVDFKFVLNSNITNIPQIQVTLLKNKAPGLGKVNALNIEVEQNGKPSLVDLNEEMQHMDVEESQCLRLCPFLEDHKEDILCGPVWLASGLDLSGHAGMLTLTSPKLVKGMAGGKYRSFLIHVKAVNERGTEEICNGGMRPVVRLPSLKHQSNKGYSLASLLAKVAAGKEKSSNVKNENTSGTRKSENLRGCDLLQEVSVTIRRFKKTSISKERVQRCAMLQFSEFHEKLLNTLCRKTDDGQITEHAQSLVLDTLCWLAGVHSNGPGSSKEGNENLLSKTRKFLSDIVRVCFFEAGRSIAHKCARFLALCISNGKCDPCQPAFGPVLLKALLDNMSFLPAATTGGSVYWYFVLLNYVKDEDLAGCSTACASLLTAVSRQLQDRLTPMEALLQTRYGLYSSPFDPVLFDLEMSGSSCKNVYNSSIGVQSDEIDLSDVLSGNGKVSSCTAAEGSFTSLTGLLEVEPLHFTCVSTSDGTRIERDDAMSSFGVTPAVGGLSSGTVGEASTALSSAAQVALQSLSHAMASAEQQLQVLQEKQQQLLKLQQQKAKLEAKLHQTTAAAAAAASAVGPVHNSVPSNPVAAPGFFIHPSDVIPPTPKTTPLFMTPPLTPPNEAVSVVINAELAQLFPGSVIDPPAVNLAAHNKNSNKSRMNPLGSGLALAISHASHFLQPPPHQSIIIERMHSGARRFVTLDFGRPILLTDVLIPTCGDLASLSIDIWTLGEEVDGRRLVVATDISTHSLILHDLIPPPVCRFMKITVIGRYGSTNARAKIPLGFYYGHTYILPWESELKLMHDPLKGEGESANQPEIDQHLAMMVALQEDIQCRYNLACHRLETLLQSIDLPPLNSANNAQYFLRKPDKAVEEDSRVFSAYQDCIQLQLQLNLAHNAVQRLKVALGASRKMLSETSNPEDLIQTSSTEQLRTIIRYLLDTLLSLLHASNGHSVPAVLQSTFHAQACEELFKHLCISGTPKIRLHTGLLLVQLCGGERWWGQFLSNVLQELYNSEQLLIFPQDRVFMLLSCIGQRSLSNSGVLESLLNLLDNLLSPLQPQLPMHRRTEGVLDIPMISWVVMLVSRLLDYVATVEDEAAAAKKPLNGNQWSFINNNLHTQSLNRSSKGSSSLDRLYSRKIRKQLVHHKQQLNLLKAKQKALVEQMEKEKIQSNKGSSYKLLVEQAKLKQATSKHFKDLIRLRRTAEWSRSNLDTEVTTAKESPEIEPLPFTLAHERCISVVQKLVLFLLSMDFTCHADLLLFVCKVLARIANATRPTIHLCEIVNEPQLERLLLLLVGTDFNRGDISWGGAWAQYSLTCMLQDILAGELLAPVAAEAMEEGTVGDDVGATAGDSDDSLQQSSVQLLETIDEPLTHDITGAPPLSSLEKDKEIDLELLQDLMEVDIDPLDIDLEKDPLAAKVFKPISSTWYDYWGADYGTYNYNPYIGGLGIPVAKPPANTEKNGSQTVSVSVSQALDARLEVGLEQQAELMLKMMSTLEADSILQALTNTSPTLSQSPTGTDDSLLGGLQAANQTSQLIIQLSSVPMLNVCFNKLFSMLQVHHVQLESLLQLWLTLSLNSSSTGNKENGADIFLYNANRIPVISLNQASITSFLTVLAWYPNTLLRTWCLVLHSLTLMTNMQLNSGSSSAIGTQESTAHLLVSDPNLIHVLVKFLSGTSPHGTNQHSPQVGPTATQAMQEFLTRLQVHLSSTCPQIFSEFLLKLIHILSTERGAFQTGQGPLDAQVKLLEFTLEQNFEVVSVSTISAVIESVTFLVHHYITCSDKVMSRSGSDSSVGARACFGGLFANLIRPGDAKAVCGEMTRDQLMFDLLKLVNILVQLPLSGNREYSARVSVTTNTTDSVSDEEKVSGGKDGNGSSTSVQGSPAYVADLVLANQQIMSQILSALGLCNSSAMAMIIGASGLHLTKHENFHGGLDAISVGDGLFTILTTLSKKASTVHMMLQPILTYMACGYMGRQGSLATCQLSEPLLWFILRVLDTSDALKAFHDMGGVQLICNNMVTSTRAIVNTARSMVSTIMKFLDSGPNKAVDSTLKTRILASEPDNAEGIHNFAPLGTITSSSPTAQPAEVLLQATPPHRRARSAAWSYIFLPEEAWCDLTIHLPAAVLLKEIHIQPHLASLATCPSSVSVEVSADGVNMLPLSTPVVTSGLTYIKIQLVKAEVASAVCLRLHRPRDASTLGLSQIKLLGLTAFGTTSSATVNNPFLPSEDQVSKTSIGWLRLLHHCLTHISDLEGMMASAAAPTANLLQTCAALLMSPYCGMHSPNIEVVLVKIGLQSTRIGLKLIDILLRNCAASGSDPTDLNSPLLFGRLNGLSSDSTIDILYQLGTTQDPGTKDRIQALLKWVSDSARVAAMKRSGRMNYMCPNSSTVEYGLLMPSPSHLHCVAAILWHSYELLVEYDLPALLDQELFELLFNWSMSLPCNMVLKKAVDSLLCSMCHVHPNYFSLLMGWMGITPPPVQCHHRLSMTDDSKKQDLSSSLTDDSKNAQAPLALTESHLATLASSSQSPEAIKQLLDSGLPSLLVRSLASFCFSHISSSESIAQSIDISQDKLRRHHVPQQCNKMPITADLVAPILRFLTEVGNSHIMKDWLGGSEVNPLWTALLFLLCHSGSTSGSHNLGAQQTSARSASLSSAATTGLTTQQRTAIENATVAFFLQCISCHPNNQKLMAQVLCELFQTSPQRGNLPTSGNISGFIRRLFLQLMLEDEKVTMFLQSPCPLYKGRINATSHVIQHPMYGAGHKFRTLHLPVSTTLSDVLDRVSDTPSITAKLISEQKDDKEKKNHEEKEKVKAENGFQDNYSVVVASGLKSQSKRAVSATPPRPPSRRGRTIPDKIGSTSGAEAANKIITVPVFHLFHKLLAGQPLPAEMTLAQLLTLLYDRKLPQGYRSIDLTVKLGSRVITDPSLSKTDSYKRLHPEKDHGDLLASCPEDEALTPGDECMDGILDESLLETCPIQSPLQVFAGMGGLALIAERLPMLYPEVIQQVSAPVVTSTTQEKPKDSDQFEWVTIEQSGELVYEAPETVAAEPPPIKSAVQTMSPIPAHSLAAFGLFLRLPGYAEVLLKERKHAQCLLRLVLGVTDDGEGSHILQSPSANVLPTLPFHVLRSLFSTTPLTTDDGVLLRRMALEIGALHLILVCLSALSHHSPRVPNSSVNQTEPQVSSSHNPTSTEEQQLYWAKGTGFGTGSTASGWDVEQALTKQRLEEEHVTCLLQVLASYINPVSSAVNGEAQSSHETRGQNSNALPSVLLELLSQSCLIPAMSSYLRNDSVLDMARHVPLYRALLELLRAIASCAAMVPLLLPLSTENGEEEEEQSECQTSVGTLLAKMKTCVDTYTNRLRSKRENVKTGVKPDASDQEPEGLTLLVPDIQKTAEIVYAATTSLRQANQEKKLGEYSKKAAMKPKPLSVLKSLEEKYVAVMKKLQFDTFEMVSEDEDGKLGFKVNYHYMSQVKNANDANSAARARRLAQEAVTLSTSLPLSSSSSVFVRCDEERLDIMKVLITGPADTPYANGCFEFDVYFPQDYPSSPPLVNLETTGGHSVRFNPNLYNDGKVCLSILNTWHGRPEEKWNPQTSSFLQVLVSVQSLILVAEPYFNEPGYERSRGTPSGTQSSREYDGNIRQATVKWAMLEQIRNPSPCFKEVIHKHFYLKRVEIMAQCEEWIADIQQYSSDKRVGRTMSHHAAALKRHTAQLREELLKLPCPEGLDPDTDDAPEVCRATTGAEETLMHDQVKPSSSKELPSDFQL
probe-labelled cysteine peptide fold change (10 µM): 0.219
probe-labelled cysteine peptide fold change (50 µM): 0.16

APOOL_Q6UXV4_74_TATGCYIGWCK (UniProt Q6UXV4)
probe-labelled cysteine peptide fold change (10 µM): -0.033
probe-labelled cysteine peptide fold change (50 µM): 0.00836

ARHGEF10L_Q9HCE6_1236_EICSVAIISGGQGYR (UniProt Q9HCE6)
probe-labelled cysteine peptide fold change (10 µM): -0.0622

ATP6V1B2_P21281_112_TSCEFTGDILR (UniProt P21281)
probe-labelled cysteine peptide fold change (10 µM): -0.0159
probe-labelled cysteine peptide fold change (50 µM): -0.117

ATRX_P46100_1760_IILTGTPLQNNLIEYHCMVNFIK (UniProt P46100)
probe-labelled cysteine peptide fold change (10 µM): 0.0119
probe-labelled cysteine peptide fold change (50 µM): 0.0932

ANAPC7_Q9UJX3_451_TLGANAQTLTLLATVCLEDPVTQEK (UniProt Q9UJX3)
probe-labelled cysteine peptide fold change (10 µM): -0.0938
probe-labelled cysteine peptide fold change (50 µM): -0.103

ATP6V1A_P38606_138_DIKWDFTPCK (UniProt P38606)
probe-labelled cysteine peptide fold change (10 µM): -0.797
probe-labelled cysteine peptide fold change (50 µM): -1.27

ARFRP1_Q13795_125_VVTSEALCGVPVLVLANK (UniProt Q13795)
probe-labelled cysteine peptide fold change (10 µM): 0.0726
probe-labelled cysteine peptide fold change (50 µM): -0.0916

ASNA1_O43681_53+55_TTCSCSLAVQLSK (UniProt O43681)
probe-labelled cysteine peptide fold change (10 µM): 0.0545

AURKB_Q96GD4_170_SCTFDEQR (UniProt Q96GD4)
probe-labelled cysteine peptide fold change (10 µM): -0.0164
probe-labelled cysteine peptide fold change (50 µM): 0.321

APPL1_Q9UKG1_603_SESNLSSVCYIFESNNEGEK (UniProt Q9UKG1)
probe-labelled cysteine peptide fold change (10 µM): 0.208
probe-labelled cysteine peptide fold change (50 µM): 0.1

ARAP3_Q8WWN8_527_QCAGQHR (UniProt Q8WWN8)
probe-labelled cysteine peptide fold change (10 µM): 0.338
probe-labelled cysteine peptide fold change (50 µM): -0.32

ALDH5A1_P51649_272_EVGEAICTDPLVSK (UniProt P51649)
probe-labelled cysteine peptide fold change (10 µM): -0.017
probe-labelled cysteine peptide fold change (50 µM): 0.218

AHRR_A9YTQ3_650_GEQSCTCR (UniProt A9YTQ3)
probe-labelled cysteine peptide fold change (10 µM): -0.0852
probe-labelled cysteine peptide fold change (50 µM): 0.681

ATP6V1A_P38606_240+254_VLDALFPCVQGGTTAIPGAFGCGK (UniProt P38606)
probe-labelled cysteine peptide fold change (10 µM): -0.204
probe-labelled cysteine peptide fold change (50 µM): -0.131

APAF1_O14727_203_LQNLCTR (UniProt O14727)
probe-labelled cysteine peptide fold change (10 µM): 0.0498
probe-labelled cysteine peptide fold change (50 µM): 0.0464

ATM_Q13315_1396_ATFAYISNCHK (UniProt Q13315)
probe-labelled cysteine peptide fold change (10 µM): 0.0278
probe-labelled cysteine peptide fold change (50 µM): -0.309

AHNAK_Q09666_108_EVFSSCSSEVVLSGDDEEYQR (UniProt Q09666)
probe-labelled cysteine peptide fold change (10 µM): 0.0368
probe-labelled cysteine peptide fold change (50 µM): -0.166

AKR7A2_O43488_156_RLQCPQVDLFYLHAPDHGTPVEETLHACQR (UniProt O43488)
probe-labelled cysteine peptide fold change (10 µM): -0.128
probe-labelled cysteine peptide fold change (50 µM): 0.041

ARHGAP4_P98171_330_VLEVHATVFCPPLR (UniProt P98171)
probe-labelled cysteine peptide fold change (10 µM): 0.0508
probe-labelled cysteine peptide fold change (50 µM): -0.0246

BANF1_O75531_80_DCFGCLR (UniProt O75531)
probe-labelled cysteine peptide fold change (10 µM): -0.0973
probe-labelled cysteine peptide fold change (50 µM): 0.121

BAZ1B_Q9UIG0_1231_AFHLFCLRPALYEVPDGEWQCPACQPATAR (UniProt Q9UIG0)
probe-labelled cysteine peptide fold change (10 µM): 0.0557
probe-labelled cysteine peptide fold change (50 µM): 0.0194

AURKA_O14965_33_RVLVTQQFPCQNPLPVNSGQAQR (UniProt O14965)
probe-labelled cysteine peptide fold change (10 µM): 0.107
probe-labelled cysteine peptide fold change (50 µM): -0.193
